# Test results: the supplement of paper PMC8728848
# The other results are listed elsewhere or left out.
# Experiments:
# Assay in all cases: glycan array binding signal (z-score within array); higher = stronger binding
# Settings in all cases: glycan notation: IUPAC condensed, linker removed
# [1] = target: Fuc(a1-2)Gal(b1-4)GlcNAc(b1-3)Gal(b1-4)GlcNAc(b1-3)Gal(b1-4)GlcNAc
# Summary of the method: (§1)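 Columns mapping to the same glycan were averaged after glycan names were converted to IUPAC-condensed notation. The data come from 3228 arrays in the Consortium for Functional Glycomics database, limited to those with an available protein sequence. Binding is reported as a within-array Z-score averaged across arrays of one protein sequence and across linkers.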
# [2] = target: Fuc(a1-2)Gal(b1-4)GlcNAc(b1-3)GalNAc
# Summary of the method: as §1
# [3] = target: Fuc(a1-2)Gal(b1-4)GlcNAc(b1-3)[Fuc(a1-2)Gal(b1-4)GlcNAc(b1-6)]GalNAc
# Summary of the method: as §1
# [4] = target: Fuc(a1-2)Gal(b1-4)GlcNAc(b1-3)[Fuc(a1-3)[Gal(b1-4)]GlcNAc(b1-6)]Gal(b1-4)Glc
# Summary of the method: as §1
# [5] = target: Fuc(a1-2)Gal(b1-4)GlcNAc(b1-6)GalNAc
# Summary of the method: as §1
# [6] = target: Fuc(a1-2)Gal(b1-4)GlcNAc6S
# Summary of the method: as §1
# [7] = target: Fuc(a1-2)Gal(b1-4)[Fuc(a1-3)]GlcNAc
# Summary of the method: as §1
# [8] = target: Fuc(a1-2)Gal(b1-4)[Fuc(a1-3)]GlcNAc(b1-2)Man(a1-3)[Fuc(a1-2)Gal(b1-4)[Fuc(a1-3)]GlcNAc(b1-2)Man(a1-6)]Man(b1-4)GlcNAc(b1-4)[Fuc(a1-6)]GlcNAc
# Summary of the method: as §1
# [9] = target: Fuc(a1-2)Gal(b1-4)[Fuc(a1-3)]GlcNAc(b1-2)[Fuc(a1-2)Gal(b1-4)[Fuc(a1-3)]GlcNAc(b1-4)]Man(a1-3)[Fuc(a1-2)Gal(b1-4)[Fuc(a1-3)]GlcNAc(b1-2)Man(a1-6)]Man(b1-4)GlcNAc(b1-4)GlcNAc
# Summary of the method: as §1
# [10] = target: Fuc(a1-2)Gal(b1-4)[Fuc(a1-3)]GlcNAc(b1-3)Gal(b1-4)[Fuc(a1-3)]GlcNAc
# Summary of the method: as §1
# [11] = target: Fuc(a1-2)Gal(b1-4)[Fuc(a1-3)]GlcNAc(b1-3)Gal(b1-4)[Fuc(a1-3)]GlcNAc(b1-3)Gal(b1-4)[Fuc(a1-3)]GlcNAc
# Summary of the method: as §1
# [12] = target: Fuc(a1-2)Gal(b1-4)[Fuc(a1-3)]GlcNAc(b1-3)GalNAc
# Summary of the method: as §1
# [13] = target: Fuc(a1-2)Gal(b1-4)[Fuc(a1-3)]GlcNAc(b1-3)[Neu5Ac(a2-6)Gal(b1-4)GlcNAc(b1-6)]Gal(b1-4)Glc
# Summary of the method: as §1
# [14] = target: Fuc(a1-2)Gal3S(b1-4)GlcNAc
# Summary of the method: as §1
# [15] = target: Fuc(a1-2)Gal6S(b1-3)GlcNAc
# Summary of the method: as §1
# [16] = target: Fuc(a1-2)Gal6S(b1-3)GlcNAc6S
# Summary of the method: as §1
# Fuc(a1-2)Gal6S(b1-4)Glc = target: Fuc(a1-2)Gal6S(b1-4)Glc
# Summary of the method: as §1
# [17] = target: Fuc(a1-2)Gal6S(b1-4)Glc6S
# Summary of the method: as §1
# Fuc(a1-2)[Gal(a1-3)]Gal = target: Fuc(a1-2)[Gal(a1-3)]Gal
# Summary of the method: as §1
# [18] = target: Fuc(a1-2)[Gal(a1-3)]Gal(b1-3)GalNAc
# Summary of the method: as §1
# [19] = target: Fuc(a1-2)[Gal(a1-3)]Gal(b1-3)GalNAc(b1-3)Gal(a1-4)Gal(b1-4)Glc
# Summary of the method: as §1
# [20] = target: Fuc(a1-2)[Gal(a1-3)]Gal(b1-3)GlcNAc
# Summary of the method: as §1
# [21] = target: Fuc(a1-2)[Gal(a1-3)]Gal(b1-3)GlcNAc(b1-2)Man(a1-3)[Fuc(a1-2)[Gal(a1-3)]Gal(b1-3)GlcNAc(b1-2)Man(a1-6)]Man(b1-4)GlcNAc(b1-4)GlcNAc
# Summary of the method: as §1
# [22] = target: Fuc(a1-2)[Gal(a1-3)]Gal(b1-3)GlcNAc(b1-2)Man(a1-3)[Fuc(a1-2)[Gal(a1-3)]Gal(b1-3)GlcNAc(b1-2)Man(a1-6)]Man(b1-4)GlcNAc(b1-4)[Fuc(a1-6)]GlcNAc
# Summary of the method: as §1
# [23] = target: Fuc(a1-2)[Gal(a1-3)]Gal(b1-3)GlcNAc(b1-3)GalNAc
# Summary of the method: as §1
# [24] = target: Fuc(a1-2)[Gal(a1-3)]Gal(b1-3)GlcNAc(b1-6)GalNAc
# Summary of the method: as §1
# [25] = target: Fuc(a1-2)[Gal(a1-3)]Gal(b1-4)Glc
# Summary of the method: as §1
# [26] = target: Fuc(a1-2)[Gal(a1-3)]Gal(b1-4)GlcNAc
# Summary of the method: as §1
# [27] = target: Fuc(a1-2)[Gal(a1-3)]Gal(b1-4)GlcNAc(b1-2)Man
# Summary of the method: as §1
# [28] = target: Fuc(a1-2)[Gal(a1-3)]Gal(b1-4)GlcNAc(b1-2)Man(a1-3)[Fuc(a1-2)[Gal(a1-3)]Gal(b1-4)GlcNAc(b1-2)Man(a1-6)]Man(b1-4)GlcNAc(b1-4)GlcNAc
# Summary of the method: as §1
binder,measurement,setting,value
PX9937J-pdi-523-26-523 (Parabacteroides distasonis) (protein) EPVSSISDANYWKSPDLFKAFNIGLHGLLRSQSSYNIFVLGEPRSDIYGDQPFGGEATQGVERFSYNTINAEFTGISNFANFYTTLNQINLMIRRTNETDLLGEAEKNYYLGQAYGLRAYIYFHLLRSWGDVIITTEPTLGSELDISHLDKAASPASEVMDLIKKDIDASEKAFGGDYSYKQGKCYWSKPATLMLKGEVYLWSGRQMGGGTGDYTVAKTALQDLQQNGNLKLQEKFTDVFSFNNKENSEMIFALHSGKEDDFMMWRDYNWRNNMVPQREYMAGYCDETGTPFLEIPGYNLQGLMRYQVKKDHYLKSFREGDTRLKGTLKAVYKKHEDGTLEYIAPIQYKFQGTTLEGSNERSWYDDYPIYRYADALLLLAEAKALLGEDPSTEINAVRERAYGSEYFNAHKNEVAYPNDKGSFYNDNPFEAGDENVMEAILKERLREFFFEGKRWYDLRRFGKDYVLKYTTAQESRLLWPINEGALTNNPALKQTPGY,glycan array binding signal (z-score),[1],0.617
same,glycan array binding signal (z-score),[2],-0.156
same,glycan array binding signal (z-score),[3],-0.406
same,glycan array binding signal (z-score),[4],-0.107
same,glycan array binding signal (z-score),[5],0.543
same,glycan array binding signal (z-score),[6],-0.348
same,glycan array binding signal (z-score),[7],-0.324
same,glycan array binding signal (z-score),[8],0.629
same,glycan array binding signal (z-score),[9],0.253
same,glycan array binding signal (z-score),[10],-0.738
same,glycan array binding signal (z-score),[11],0.203
same,glycan array binding signal (z-score),[12],0.326
same,glycan array binding signal (z-score),[13],0.315
same,glycan array binding signal (z-score),[14],-0.342
same,glycan array binding signal (z-score),[15],-0.322
same,glycan array binding signal (z-score),[16],0.817
same,glycan array binding signal (z-score),Fuc(a1-2)Gal6S(b1-4)Glc,-0.238
same,glycan array binding signal (z-score),[17],-0.406
same,glycan array binding signal (z-score),Fuc(a1-2)[Gal(a1-3)]Gal,-0.17
same,glycan array binding signal (z-score),[18],-0.16
same,glycan array binding signal (z-score),[19],0.139
same,glycan array binding signal (z-score),[20],0.244
same,glycan array binding signal (z-score),[21],0.405
same,glycan array binding signal (z-score),[22],-0.706
same,glycan array binding signal (z-score),[23],-0.603
same,glycan array binding signal (z-score),[24],-0.417
same,glycan array binding signal (z-score),[25],0.053
same,glycan array binding signal (z-score),[26],-0.433
same,glycan array binding signal (z-score),[27],0.222
same,glycan array binding signal (z-score),[28],-0.755
